{"source": "PubChem BioAssay AID652104", "about": "(National Center for Advancing Translational Sciences (NCATS), 2013)", "note": "The campaign covered roughly 410,000 compounds. About 7,200 (1.8%) were called active. This list was built around the results that the source calls inconclusive (neither active nor inactive); the mix of calls is not that of the screen. The call rests on the fitted dose curve; in most records, active means well fitted activation curve with a large enough effect; inconclusive means small, poorly fitted or top-dose-only effect, or another doubt; inactive means no such curve, though single readings can be large or run the other way. No potency is given beside an inconclusive call; the fits are too rough. Potency means the concentration at half of the fitted maximal effect; tags describe the fitted curve by direction and shape."}
{"assay": "qHTS of TDP-43 Inhibitors; further: nearly all actives have a fitted effect of over 50% in size; on growth rescue (activation): % of control where 0% means no effect", "conditions": "TDP-43 expressing yeast growth rescue, BacTiter-Glo, 24 h; growth rescue (activation): at 46.1 µM (top of the series) unless noted", "how_it_was_run": "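Yeast expressing TDP-43 (pregrown in raffinose, seeded at OD600=0.02 in galactose medium) exposed to compounds 24 hr at 30 deg C. Growth read by BacTiter-Glo luminescence; rescue of toxicity appears as increased signal.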"}
{"smiles": "Cc1ccc(C)c(OC(C)C(=O)Nc2nccs2)c1", "note": "(stereo unspecified)", "Potency": "inconclusive [activator, single point]"}
{"smiles": "CCOc1ccc2nc(NC(=O)CSc3nc(SC)ns3)sc2c1", "Potency": "inactive"}
{"smiles": "Cc1ccc(CNC(=O)CO/N=C/c2ccc3c(c2)OCO3)cc1", "Potency": "active: 20 µM"}
{"smiles": "CCOC(=O)c1cnc(-n2[nH]c(C)cc2=O)[nH]c1=O", "Potency": "inactive"}
{"smiles": "O=C(Oc1csc(=S)n1C(=O)c1ccccc1)c1ccccc1", "Potency": "inconclusive [activator, partial curve]"}
{"smiles": "CCn1c(C)nc2cc(C(=O)NNC(=S)Nc3ccccc3Cl)ccc21", "Potency": "inconclusive [activator, partial curve, poor fit]"}
{"smiles": "CN=C1NN=C(c2cc(C)n(-c3c(C)n(C)n(-c4ccccc4)c3=O)c2C)CS1", "growth rescue (activation)": "inactive: -13.7% [at 0.397 µM]"}
{"smiles": "Cc1cccc(CC(=O)NCCc2csc(-c3ccc(C(F)(F)F)cc3)n2)c1", "Potency": "inconclusive [activator, full curve, poor fit]"}
{"smiles": "Cc1ccc(C)c(C(=O)COC(=O)CCCC(=O)Nc2cc(C(F)(F)F)ccc2Cl)c1", "Potency": "inconclusive [activator, partial curve, poor fit]"}
{"smiles": "Cc1ccc(NC(=S)NNC(=S)NNc2ccccc2)cc1C", "Potency": "inconclusive [activator, single point]"}
{"smiles": "O=C(CSc1nccn1Cc1ccc(Cl)cc1)NCc1ccccc1", "growth rescue (activation)": "inactive: 9.99% [at 9.22 µM]"}
{"smiles": "CCOC(=O)c1ccc(N2C(=O)c3n[nH]c(-c4ccco4)c3C2c2ccc(F)cc2)cc1", "note": "(stereo unspecified)", "Potency": "inconclusive [activator, partial curve]"}
{"smiles": "O=C(CN1C(=O)C2(SCC(=O)N2c2ccc(F)c(F)c2)c2ccccc21)Nc1ccccc1F", "note": "(stereo unspecified)", "Potency": "inconclusive [activator, partial curve]"}
{"smiles": "COc1ccc(NC(=O)c2nc[nH]c2C(=O)NCC(=O)OC(C)(C)C)cc1", "Potency": "inconclusive [activator, single point]"}
{"smiles": "COc1ccc(-c2nc(N)ncc2Oc2ccccc2Br)c(O)c1", "Potency": "inactive"}
{"smiles": "COc1ccc(-c2cc(C(F)(F)F)nc(SCC(=O)NCc3ccc(Cl)cc3)n2)cc1", "Potency": "inconclusive [activator, partial curve]"}
{"smiles": "CC(=O)Oc1ccc(-c2nc3cc(Cl)ccc3c(=O)o2)cc1", "Potency": "active: 3.98 µM"}
{"smiles": "O=C(Nc1ccccc1N1CCN(C(=O)c2ccc(Cl)cc2)CC1)c1cccc([N+](=O)[O-])c1", "Potency": "inconclusive [activator, single point]"}
{"smiles": "COc1ccc(OC)c(-c2cc(C(=O)N3CCc4ccccc4C3)no2)c1", "Potency": "inactive"}
{"smiles": "CN(C)c1ccc(C(=O)OCC(=O)NCCCc2ccccc2)cc1", "Potency": "inconclusive [activator, single point]"}
{"smiles": "COc1ccccc1OCC(=O)NCC1(N(C)C)CCCCC1", "growth rescue (activation)": "inactive: 0% [at 9.22 µM]"}
{"smiles": "Cc1ccc(Cn2c(CCCNC(=O)C3CCCCC3)nc3ccccc32)cc1", "Potency": "inconclusive [activator, single point]"}
{"smiles": "Cc1ccc(S(=O)(=O)NC2=NCN(CCOC(=O)c3ccccc3)CN2)cc1", "Potency": "inactive"}
{"smiles": "C#CCNC(=O)C[C@@H]1C[C@@]2(C(=O)OCC)CCCC=C2N(CCCCCCCC)C1=O", "Potency": "active: 12.6 µM"}
{"smiles": "C[C@@H]1CN([C@H](C)CO)C(=O)c2cc(C#C[C@@H](C)O)cnc2O[C@H]1CN(C)C(=O)c1ccc(F)cc1", "Potency": "inconclusive [activator, full curve, poor fit]"}
{"smiles": "CCOC(=O)c1c(S(=O)(=O)N2CCC(C(=O)N3CCN(c4cc(C)ccc4C)CC3)CC2)c(C)n(C)c1C", "Potency": "inactive"}
{"smiles": "CSCCC(C(=O)NCc1cccs1)N1C(=O)c2ccccc2C1=O", "note": "(stereo unspecified)", "Potency": "inconclusive [activator, partial curve]"}
{"smiles": "O=C(NCCc1csc2nc(-c3ccc(F)cc3)nn12)c1ccco1", "growth rescue (activation)": "inactive: 0% [at 9.22 µM]"}
{"smiles": "CC(NC(=S)NC1CCCCC1)c1ccccc1", "note": "(stereo unspecified)", "Potency": "inactive"}
{"smiles": "COc1cccc(N2CCN(S(=O)(=O)c3ccc4c(c3)CCCN4C(C)=O)CC2)c1", "Potency": "inactive"}
{"smiles": "COc1ccc(Cl)cc1NC(=O)c1cc(C)nn1-c1ccccc1", "Potency": "inconclusive [activator, partial curve]"}
{"smiles": "Cc1nn(C2CC(O)C(O)C(CO)O2)c(=O)[nH]c1=O", "note": "(stereo unspecified)", "Potency": "inactive"}
{"smiles": "CC(=O)N1CCc2cc(Br)cc(S(=O)(=O)N3CCN(c4cccc(C)c4)C(C)C3)c21", "note": "(stereo unspecified)", "Potency": "inconclusive [activator, full curve]"}
{"smiles": "CCCCCC1CCC(c2n[nH]c(=S)n2C)CC1", "note": "(stereo unspecified)", "Potency": "active: 14.1 µM"}
{"smiles": "C=C(C)COc1ccc(-c2nc(N)ncc2-c2ccc(Br)cc2)c(O)c1", "Potency": "active: 20 µM"}
{"smiles": "O=c1oc2ccccc2n1Cc1cccc(C(F)(F)F)c1", "Potency": "inconclusive [activator, partial curve]"}
{"smiles": "O=C(NCCc1csc(-c2cccnc2)n1)c1ccc(F)c(F)c1", "Potency": "inconclusive [activator, single point]"}
{"smiles": "O=C(COc1ccc(Cl)cc1)Nc1nc(-c2ccncc2)cs1", "Potency": "inconclusive [activator, partial curve]"}
{"smiles": "N#C/C(=C\\c1c(Oc2ccc(Br)cc2)nc2ccccn2c1=O)c1nc2ccccc2s1", "Potency": "inactive"}
{"smiles": "COc1cccc(C2=NOC(C(=O)N3CCN(c4ccccc4)CC3)C2)c1OC", "note": "(stereo unspecified)", "Potency": "inconclusive [activator, partial curve]"}
{"smiles": "Oc1ccc(NCc2ccc(OCc3ccccc3Cl)cc2)cc1", "Potency": "inconclusive [activator, partial curve]"}
{"smiles": "CSc1ccccc1NC(=O)Cn1nc([N+](=O)[O-])c(Cl)c1C", "Potency": "inactive"}
{"smiles": "O=C(CC[C@H]1O[C@@H](n2cnc3c(NC(=O)c4ccccc4)ncnc32)[C@H](O)[C@@H]1O)NCC(c1ccccc1)c1ccccc1", "Potency": "inactive"}
{"smiles": "Cc1ccc(Cc2nc3ccccc3nc2SCC(=O)N2CCCCC2C)cc1", "note": "(stereo unspecified)", "Potency": "active: 35.5 µM"}
{"smiles": "COc1cc(C(=O)Nc2ccc3c(c2)ncn3C)cc(OC)c1OC", "Potency": "inactive"}
{"smiles": "Nc1nccc(/C=C/c2ccc(Cl)cc2)n1", "Potency": "inconclusive [activator, partial curve]"}
{"smiles": "CCCNC(=O)C1(C)CCCN(C(=O)c2cc3ccccc3s2)C1", "note": "(stereo unspecified)", "Potency": "inconclusive [activator, full curve, poor fit]"}
{"smiles": "CC(Oc1cccc(Cl)c1)C(=O)Nc1ccc(N2CCOCC2)cc1N1CCOCC1", "note": "(stereo unspecified)", "Potency": "inconclusive [activator, single point]"}
{"smiles": "CC(C)Cc1cc(C(=O)Nc2ccccc2)c2ccccc2n1", "Potency": "inactive"}
{"smiles": "Fc1ccccc1-n1ncc2c1ncn1nc(Cc3ccccc3)nc21", "Potency": "active: 10 µM"}
{"smiles": "C#CCOCCOCCOCCNc1nc(OC)nc(N2CCN(C(=O)[C@H](CCC(=O)O)n3cc(C(N)CO)nn3)CC2)n1", "note": "(stereo partly specified)", "Potency": "inconclusive [activator, partial curve]"}
{"smiles": "CCOC(=O)c1nnn(-c2nonc2OC)c1-c1ccccc1", "Potency": "inconclusive [activator, single point]"}
{"smiles": "O=S(=O)(c1ccc(Cl)cc1)c1nnn2c1nc(N1CCCCC1)c1sccc12", "Potency": "inactive"}
{"smiles": "CCCCNC(=O)[C@]1(C)CCC[C@@]2(C)C3CC[C@@]4(C)C[C@]3(CCC21)CC4=O", "note": "(stereo partly specified)", "Potency": "inconclusive [activator, single point]"}
{"smiles": "Cc1ccc(C(=O)Nc2ccc(C)c(S(=O)(=O)N(C)C)c2)s1", "Potency": "inconclusive [activator, single point]"}
{"smiles": "Cc1ccc2ccc3cc(C(=O)N4CCN(c5ccccc5)CC4)nc3c2[nH]1", "Potency": "inconclusive [activator, partial curve]"}
{"smiles": "CC(=O)Nc1ccc(-c2nnc(SCC(=O)c3ccc([N+](=O)[O-])cc3)o2)cc1", "Potency": "inactive"}
{"smiles": "COc1cccc(CC(=O)n2nc(N)c3cc4ccc(OC)cc4nc32)c1", "Potency": "inconclusive [activator, full curve, poor fit]"}
{"smiles": "COc1cccc(-c2cc(C(F)(F)F)nc(-n3cccn3)n2)c1", "Potency": "inconclusive [activator, partial curve]"}
{"smiles": "O=C1N=C(N2CCCCC2)S/C1=C\\c1ccccc1F", "Potency": "inconclusive [activator, single point]"}
{"smiles": "CC1CCc2cc(F)ccc2N1C(=O)CSc1nnc(-c2cccs2)n1C", "note": "(stereo unspecified)", "Potency": "inconclusive [activator, single point]"}
{"smiles": "Cc1cccn2c(=O)c3cc(C(=O)N(Cc4ccccc4)C(C)C)sc3nc12", "Potency": "inconclusive [activator, single point]"}
{"smiles": "CCOC(=O)c1ccc(NC(=S)NC(=O)C2CCCC2)cc1", "Potency": "inactive"}
{"smiles": "COc1cc2oc(=O)cc(CN3CCN(c4ccc(Cl)c(Cl)c4)CC3)c2cc1Cl", "Potency": "inconclusive [activator, partial curve]"}
{"smiles": "CC(=O)Nc1ccc(S(=O)(=O)NCCC(=O)OC(C)C(=O)c2ccc(C)cc2)cc1", "note": "(stereo unspecified)", "Potency": "inactive"}
{"smiles": "COc1cccc(C(=O)c2ccccc2NC(C)=O)c1", "Potency": "inconclusive [activator, partial curve]"}
{"smiles": "Cc1ccccc1CNC(=O)c1cc(COc2ccc(F)cc2F)on1", "Potency": "inconclusive [activator, single point]"}
{"smiles": "CCn1c(CN2CCCCC2)nc2cc(NC(=O)c3ccc([N+](=O)[O-])cc3)ccc21", "Potency": "inactive"}
{"smiles": "Cc1ccc(SCCNC(=S)Nc2ccc(C)c(C)c2)cc1", "Potency": "inactive"}
{"smiles": "O=c1[nH]c(=O)n([C@H]2C[C@H](O)[C@@H](CO)O2)cc1I", "Potency": "inconclusive [activator, full curve, poor fit]"}
{"smiles": "CC(=O)N1c2ccccc2N2C(c3c(C)c(C)cc(C)c3C)=NON12", "Potency": "inconclusive [activator, single point]"}
